Experimental data published in publication PMC5700166.
The list shows a part of the results, in another mix than the full data. The list includes weakly bound sequences.

Target: T1, GST-Aq-NF-kB (UniProt A9Y5G7)
T1 sequence: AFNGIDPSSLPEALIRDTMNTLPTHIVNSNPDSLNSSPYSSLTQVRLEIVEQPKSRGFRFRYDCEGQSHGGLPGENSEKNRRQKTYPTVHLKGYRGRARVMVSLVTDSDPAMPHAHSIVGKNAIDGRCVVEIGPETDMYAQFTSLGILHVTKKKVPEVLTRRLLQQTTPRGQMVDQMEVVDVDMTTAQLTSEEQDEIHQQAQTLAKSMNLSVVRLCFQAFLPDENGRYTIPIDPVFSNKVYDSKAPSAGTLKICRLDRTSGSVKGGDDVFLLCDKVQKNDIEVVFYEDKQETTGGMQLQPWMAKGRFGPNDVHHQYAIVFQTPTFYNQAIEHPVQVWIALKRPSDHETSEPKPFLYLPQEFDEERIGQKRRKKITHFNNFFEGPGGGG
Experiment: protein-binding microarray (PBM)
Conditions: PBM: ~300 nM protein, 6 mM HEPES pH 7.8, 80 mM KCl, 0.5 mM EDTA, 0.5 mM EGTA, 6% glycerol, 35 ng/ul poly-dIdC, 1% milk, 1 h, room temperature; Ap Aiptasia and Nv Nematostella (sea anemones) / Co Capsaspora / Aq Amphimedon (sponge) / Dm Drosophila / Hu human; RHD is the Rel homology domain; high values mean tight binding; most listed sequences are background and not binding sites; double strand, one strand shown

Sequence | binding signal
CCGATTAACATCAGGAAATGGGATGATGTTAATCGGGTCTTGATTCGCTTGACGCTGCTG | 0.515 z-score
CCGATTAACATCATCGCGCGACATGATGTTAATCGGGTCTTGATTCGCTTGACGCTGCTG | -0.297 z-score
CCGATTAACATCATCATCTCCATTGATGTTAATCGGGTCTTGATTCGCTTGACGCTGCTG | -0.251 z-score
CCGATTAACATCAATCCTACAGGTGATGTTAATCGGGTCTTGATTCGCTTGACGCTGCTG | -0.126 z-score
CCGATTAACATCAAAATTCGTCATGATGTTAATCGGGTCTTGATTCGCTTGACGCTGCTG | -0.263 z-score
CCGATTAACATCACAGCGAATCCTGATGTTAATCGGGTCTTGATTCGCTTGACGCTGCTG | -0.437 z-score
CCGATTAACATCAGGAAATTTGATGATGTTAATCGGGTCTTGATTCGCTTGACGCTGCTG | 0.469 z-score
CCGATTAACATCAGCACCCTCCATGATGTTAATCGGGTCTTGATTCGCTTGACGCTGCTG | 0.734 z-score
CCGATTAACATCATATTCGTAGCTGATGTTAATCGGGTCTTGATTCGCTTGACGCTGCTG | -0.404 z-score
CCGATTAACATCAGTTGCTCTCATGATGTTAATCGGGTCTTGATTCGCTTGACGCTGCTG | -0.394 z-score
CCGATTAACATCAAATGCAGTTTTGATGTTAATCGGGTCTTGATTCGCTTGACGCTGCTG | -0.685 z-score
CCGATTAACATCACGCCGTCGGATGATGTTAATCGGGTCTTGATTCGCTTGACGCTGCTG | -0.378 z-score
CCGATTAACATCACCATCTGACCTGATGTTAATCGGGTCTTGATTCGCTTGACGCTGCTG | -0.104 z-score
CCGATTAACATCATGCCGGTATATGATGTTAATCGGGTCTTGATTCGCTTGACGCTGCTG | -0.315 z-score
CCGATTAACATCATAAAAGTTCTTGATGTTAATCGGGTCTTGATTCGCTTGACGCTGCTG | 0.196 z-score
CCGATTAACATCATTGCCTGGTGTGATGTTAATCGGGTCTTGATTCGCTTGACGCTGCTG | -0.238 z-score
CCGATTAACATCAGAAAATCCGCTGATGTTAATCGGGTCTTGATTCGCTTGACGCTGCTG | 0.591 z-score
CCGATTAACATCAGACTATGCGGTGATGTTAATCGGGTCTTGATTCGCTTGACGCTGCTG | 0.248 z-score
CCGATTAACATCAGCGAAATTCCTGATGTTAATCGGGTCTTGATTCGCTTGACGCTGCTG | 0.273 z-score
CCGATTAACATCATAGGAATGATTGATGTTAATCGGGTCTTGATTCGCTTGACGCTGCTG | -0.258 z-score

Sequence | binding signal
CCGATTAACATCAGATTCTCATCTGATGTTAATCGGGTCTTGATTCGCTTGACGCTGCTG | -0.375 z-score
CCGATTAACATCACGATAGGCCGTGATGTTAATCGGGTCTTGATTCGCTTGACGCTGCTG | -0.716 z-score
CCGATTAACATCAATGGACCGTTTGATGTTAATCGGGTCTTGATTCGCTTGACGCTGCTG | -0.31 z-score
CCGATTAACATCACAGAGTTTCCTGATGTTAATCGGGTCTTGATTCGCTTGACGCTGCTG | 0.0672 z-score
CCGATTAACATCACAGGAATTTCTGATGTTAATCGGGTCTTGATTCGCTTGACGCTGCTG | 0.941 z-score
CCGATTAACATCAATCGCCTCTCTGATGTTAATCGGGTCTTGATTCGCTTGACGCTGCTG | -0.171 z-score
CCGATTAACATCACCGTTCCGATTGATGTTAATCGGGTCTTGATTCGCTTGACGCTGCTG | 0.251 z-score
CCGATTAACATCAGCTTCGAGTCTGATGTTAATCGGGTCTTGATTCGCTTGACGCTGCTG | -0.679 z-score
CCGATTAACATCAGACGCTATAATGATGTTAATCGGGTCTTGATTCGCTTGACGCTGCTG | -0.372 z-score
CCGATTAACATCATTACGCCACGTGATGTTAATCGGGTCTTGATTCGCTTGACGCTGCTG | -0.455 z-score
CCGATTAACATCAGGTTCATACCTGATGTTAATCGGGTCTTGATTCGCTTGACGCTGCTG | 0.259 z-score
CCGATTAACATCAAGTATGTGAATGATGTTAATCGGGTCTTGATTCGCTTGACGCTGCTG | -0.247 z-score
CCGATTAACATCAATGAATTCGATGATGTTAATCGGGTCTTGATTCGCTTGACGCTGCTG | -0.476 z-score
CCGATTAACATCAGGCAGTTCCATGATGTTAATCGGGTCTTGATTCGCTTGACGCTGCTG | -0.327 z-score
CCGATTAACATCAGGCCCGTTTGTGATGTTAATCGGGTCTTGATTCGCTTGACGCTGCTG | 0.643 z-score
CCGATTAACATCATTCGACATGTTGATGTTAATCGGGTCTTGATTCGCTTGACGCTGCTG | -0.634 z-score
CCGATTAACATCACGGAAAAACCTGATGTTAATCGGGTCTTGATTCGCTTGACGCTGCTG | 3.55 z-score
CCGATTAACATCATACCTATAGTTGATGTTAATCGGGTCTTGATTCGCTTGACGCTGCTG | -0.404 z-score
CCGATTAACATCATAAGGACGTATGATGTTAATCGGGTCTTGATTCGCTTGACGCTGCTG | 0.126 z-score
